# Source: PubChem BioAssay AID624296 (National Center for Advancing Translational Sciences (NCATS), 2012)
# In all, about 350,000 compounds went through this assay and about 9,900 (2.8%) were called active. Inconclusive results, whose numbers are uncertain, are shown with a selection of clear calls. Calls come from the whole dose curve; as a rule, active = well fitted activation curve with a large enough effect; inconclusive = small, poorly fitted or top-dose-only effect; inactive = no such curve, though single readings can be large or run the other way. Potencies of inconclusive entries are left out as doubtful fits.
# Test: A quantitative high throughput screen for small molecules that induce DNA re-replication in MCF 10a normal breast cells. For activity, positive = re-replication: % of control where 0% means no effect. Note: nearly all actives have a fitted effect of over 50% in size.
# Conditions: MCF 10A DNA re-replication, Hoechst nuclear intensity, 48 h; activity, positive = re-replication: at 46.1 µM (top of the series)
# Potency is the fitted concentration of half-maximal effect; tags give direction and shape of the fitted curve.
Compound,Potency,"activity, positive = re-replication"
CCOC(=O)[C@H]1[C@H]2COc3ccc(Cl)cc3[C@@H]2N2C(=O)[C@H](C)NC(=O)[C@@]12C,"inconclusive [activator, partial curve, poor fit]",–
COc1cc(C(=O)Nc2ccc(S(=O)(=O)N3CCc4ccccc43)cc2)cc(OC)c1OC,–,inactive: 6.08%
CCc1cc2c(=O)n(Cc3ccco3)c(SCC(=O)N3CCCc4ccccc43)nc2s1,"inconclusive [activator, single point]",–
O=C(CCN1C(=O)c2ccccc2S1(=O)=O)Nc1ccc(F)c(F)c1F,–,inactive: 18.6%
Cc1oc(-c2ccc(Cl)cc2)nc1CN1CCCC(C(=O)NCc2ccco2)C1 (stereo not drawn),–,inactive: -0.897%
CC1CCN(C(=S)NC(=O)C2CCCCC2)CC1,–,inactive: -0.195%
COc1ccccc1NS(=O)(=O)c1ccc(C)c(C(=O)NCC2(N(C)C)CCCCC2)c1,–,inactive: 12.9%
Cc1cc(C)cc(NC(=O)c2cccc(NC(=O)c3ccco3)c2)c1,–,inactive: 2.64%
O=C(Nc1cc(C(F)(F)F)ccc1N1CCOCC1)c1c(F)c(F)c(F)c(F)c1F,"inconclusive [activator, single point]",–
Cc1cc(C)cc(C(=O)N2CCC(C(N)=O)CC2)c1,"inconclusive [activator, single point]",–
COc1cc(CN2CCN(S(=O)(=O)c3ccc(F)cc3)CC2)cc(OC)c1OC,"inconclusive [activator, single point]",–
COCC(=O)Nc1c(C(=O)Nc2ccccc2OC)oc2ccccc12,–,inactive: 19%
COc1ccccc1NS(=O)(=O)c1cc(NC(=O)c2ccc(Cl)nc2)ccc1Cl,active: 18.4 µM,–
CC(=O)c1nc(-c2ccccc2)sc1C,"inconclusive [activator, single point]",–
COc1cccc(N=c2oc3cc(O)ccc3cc2C(=O)NCC2CCCO2)c1 (stereo not drawn),"inconclusive [activator, single point]",–
CC1CC(C)(C)NC(=S)N1CCCC(=O)Nc1ccccc1F (stereo not drawn),–,inactive: -4.55%
Cc1cc(C)cc(NS(=O)(=O)c2ccc(F)cc2)c1,"inconclusive [activator, single point]",–
Cc1cc(N2CCN(c3nc(-c4ccc([N+](=O)[O-])cc4)cs3)CC2)c2ccccc2n1,"inconclusive [activator, single point]",–
CC(=O)[C@H]1[C@@H]2C(=O)N(c3cccc(Cl)c3)C(=O)[C@@H]2[C@H]2c3ccccc3C=CN21,"inconclusive [activator, partial curve, poor fit]",–
NC1=NC(=O)S/C1=C\c1ccc(O)cc1,"inconclusive [activator, partial curve, poor fit]",–
COc1ccc(NC(=O)c2ccc(N3C(=O)C4CC=C(C)CC4C3=O)cc2)c(OC)c1 (stereo not drawn),–,inactive: 2.19%
CNC1C(O)C(OC2C(NC(=O)C(O)CN)CC(N)C(OC3OC(CN)C(O)C(O)C3O)C2O)OCC1(C)O (stereo not drawn),–,inactive: -2.55%
COc1cccc(/C=N/NC(=O)CC(=O)NCCc2ccc(OC)c(OC)c2)c1,"inconclusive [activator, full curve, poor fit]",–

Compound,Potency,"activity, positive = re-replication"
O=C(N/N=C/c1cc(Br)cc(Br)c1O)c1cccc(N2CCCC2=O)c1,"inconclusive [activator, single point]",–
Cc1nnnn1/C(=C\c1ccccc1)C(=O)OCC(=O)N1CC2(C)CC1CC(C)(C)C2 (stereo not drawn),active: 16.4 µM,–
O=C(/C=C/c1ccc2c(c1)OCO2)NCCSCc1ccc(Cl)cc1Cl,"inconclusive [activator, partial curve, poor fit]",–
O=C(Nc1nc2ccc(Br)cc2s1)c1ccco1,–,inactive: 1.54%
COc1ccc(-n2c(C)nnc2SCC(=O)N2C(C)CCCC2C)cc1 (stereo not drawn),"inconclusive [activator, single point]",–
O=C(CSc1nnnn1-c1ccc(O)cc1)c1ccc(F)cc1,"inconclusive [activator, single point]",–
CC/C(=C\c1ccc(N(C)C)cc1)c1ccncc1,"inconclusive [activator, single point]",–
COc1ccc(Nc2nnc(SC(C(=O)Nc3cc(C)ccc3C)c3ccccc3)s2)cc1 (stereo not drawn),"inconclusive [activator, full curve, poor fit]",–
Cc1ccc2oc(=O)c3cnn(CC(=O)NC4CCCCC4C)c3c2c1 (stereo not drawn),"inconclusive [activator, single point]",–
CC(/C=N/NC(=O)c1cc(C(C)(C)C)[nH]n1)=C\c1ccccc1,"inconclusive [activator, single point]",–
N#C/C=C/C(=C\Nc1ccc(Cl)cc1)S(=O)(=O)c1ccccc1,"inconclusive [activator, single point]",–
O=C(CCC1CCCN(C(=O)c2ccco2)C1)NCc1ccccc1F (stereo not drawn),–,inactive: 3.61%
CCCCOc1ccc(N(CC(=O)NCc2ccccc2)C(=O)c2csnn2)cc1,"inconclusive [activator, partial curve, poor fit]",–
COc1ccc(CCNc2nc(C)nc3c2nnn3Cc2ccccc2)cc1,–,inactive: 3.15%
CN(C)CCN(C)Cc1c2ccccc2c(CN(C)CCN(C)C)c2ccccc12,"inconclusive [activator, single point]",–
CC(=O)N(C1CC(C)C(C#N)(C#N)C1(C#N)C#N)N(C)C (stereo not drawn),"inconclusive [activator, partial curve, poor fit]",–
NS(=O)(=O)c1ccc(N2N=C(c3ccccc3)CC2c2ccccc2Cl)cc1 (stereo not drawn),active: 3.26 µM,–
O=C(Cn1c(=O)oc2cc(S(=O)(=O)N3CCCCC3)ccc21)N1CCCCC1,–,inactive: -5.28%
Cc1cc(C)n2nc(N)c(N=Nc3ccccc3)c2n1,–,inactive: 7.8%
O=c1[nH]c(/C=C\c2ccccc2F)nc(O)c1[N+](=O)[O-],"inconclusive [activator, full curve, poor fit]",–
O=C(NCC1COCCO1)c1ccc(OC2CCN(CCc3ccccc3)CC2)cc1 (stereo not drawn),"inconclusive [activator, partial curve, poor fit]",–
CCOCCCNC(=O)Cc1ccc(F)cc1,–,inconclusive: 102% [activator]
CCc1nnc(NC(=O)c2cc([N+](=O)[O-])ccc2N2CCOCC2)s1,"inconclusive [activator, single point]",–

Compound,Potency,"activity, positive = re-replication"
CCOC(=O)C1CCN(C(=O)COC(=O)c2ccc3[nH]c4c(c3c2)CCCC4)CC1,"inconclusive [activator, single point]",–
CCc1nnc(NS(=O)(=O)c2ccc(NC(=O)/C=C/c3ccc(OC)cc3OC)cc2)s1,"inconclusive [activator, partial curve, poor fit]",–
CCS(=O)(=O)n1nc(-c2ccc(C)cc2)nc1N,–,inactive: -1.96%
COc1ccc(/C(C)=N/NC(=O)c2cc(-c3cccnc3)nc3ccccc23)cc1,–,inactive: -1.64%
COC(=O)C1=C(C(=O)OC)[C@@H]2Nc3ccccc3[C@@]23C[C@@H](C(=O)OC)N(C(C)=O)C3=N1,"inconclusive [activator, full curve, poor fit]",–
COc1cc(SC)ccc1C(=O)OCc1nc2ccsc2c(=O)[nH]1,–,inactive: -0.49%
Cn1c(CN2CCOCC2)nc2cc(NC(=O)c3ccccc3Cl)ccc21,–,inactive: 18.5%
O=C(N/N=C/c1ccc([N+](=O)[O-])s1)c1ccncc1,"inconclusive [activator, single point]",–
CCOC(=O)N1CCC(=NNC(=O)Cn2ccc(C(F)(F)F)n2)CC1,"inconclusive [activator, full curve, poor fit]",–
COc1ccc(OCC(=O)Nc2cc(OC)ccc2N2CCCCC2)cc1,"inconclusive [activator, single point]",–
CCN(CC)C(=O)CSc1ncnc2c(-c3cccs3)nsc12,–,inactive: 27%
COc1ccccc1NC(=O)C(=O)c1cn(CC(=O)N2CCOCC2)c2ccccc12,–,inactive: 1.21%
C[C@@H]1CC[C@]2(C(=O)O)CC[C@]3(C)C(=CCC4[C@]56CC[C@@](O)(OC5)C(C)(C)C6CC[C@]43C)C2[C@H]1C (stereo partly drawn),"inconclusive [activator, partial curve, poor fit]",–
CCOC(=O)c1ccc(NC(=S)N2CCSC2c2ccc(Cl)cc2)cc1 (stereo not drawn),"inconclusive [activator, single point]",–
COc1ccc(OCCN2C(=O)c3cccc(N)c3C2=O)cc1,"inconclusive [activator, single point]",–
Cc1nn(-c2ccc(N3CCCCC3)nn2)c(C)c1CCC(=O)Nc1ccc(F)c(F)c1,"inconclusive [activator, single point]",–
C#CCN(C(=O)c1cc(COc2cccc(C(F)(F)F)c2)on1)C1CCCCC1,"inconclusive [activator, single point]",–
CCC(C)c1ccc(C2C3=C(Nc4nc(N)[nH]c(=O)c42)c2ccccc2C3=O)cc1 (stereo not drawn),"inconclusive [activator, full curve, poor fit]",–
Clc1ccc(-n2cnc3c(Cl)ncnc32)cc1Cl,"inconclusive [activator, partial curve]",–
CCN1C=C(Cc2ccccc2C)C2=C(C1)C(c1ccccc1C)C(C#N)=C(N)O2 (stereo not drawn),"inconclusive [activator, single point]",–
CC(=O)c1sc(N/N=C\c2ccc(Br)cc2)nc1C,active: 18.4 µM,–
O=C(Nc1ccc(Cl)cn1)c1cccnc1,"inconclusive [activator, single point]",–
